Test results taken from the supplement of paper PMC8728848.
Some of the results follow.

Columns and labels:
Assay in all cases: glycan array binding signal (z-score within array); higher = stronger binding
Conditions in all cases: glycan notation: IUPAC condensed, linker removed
Fuc(a1-3)GlcNAc = target: Fuc(a1-3)GlcNAc
Outline: (§1)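 Glycan array data were curated from 3228 arrays in the Consortium for Functional Glycomics database and kept only where the protein sequence was available. Glycan names were converted to IUPAC-condensed notation, and columns mapping to the same glycan were averaged. The binding signal is a within-array Z-score, averaged across arrays of the same protein sequence at different concentrations or buffers and across linkers. Negative Z-scores can be read as non-binding.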

[1] = target: Fuc(a1-3)[Gal(b1-4)]Glc6S
Outline: as §1

[2] = target: Fuc(a1-3)[Gal(b1-4)]GlcNAc
Outline: as §1

[3] = target: Fuc(a1-3)[Gal(b1-4)]GlcNAc(b1-2)Man
Outline: as §1

[4] = target: Fuc(a1-3)[Gal(b1-4)]GlcNAc(b1-2)Man(a1-3)[Fuc(a1-3)[Gal(b1-4)]GlcNAc(b1-2)Man(a1-6)]Man(b1-4)GlcNAc(b1-4)GlcNAc
Outline: as §1

[5] = target: Fuc(a1-3)[Gal(b1-4)]GlcNAc(b1-2)Man(a1-3)[Fuc(a1-3)[Gal(b1-4)]GlcNAc(b1-2)Man(a1-6)]Man(b1-4)GlcNAc(b1-4)[Fuc(a1-6)]GlcNAc
Outline: as §1

[6] = target: Fuc(a1-3)[Gal(b1-4)]GlcNAc(b1-3)Gal(b1-3)[Fuc(a1-4)]GlcNAc
Outline: as §1

[7] = target: Fuc(a1-3)[Gal(b1-4)]GlcNAc(b1-3)Gal(b1-4)[Fuc(a1-3)]GlcNAc
Outline: as §1

[8] = target: Fuc(a1-3)[Gal(b1-4)]GlcNAc(b1-3)Gal(b1-4)[Fuc(a1-3)]GlcNAc(b1-3)Gal(b1-4)[Fuc(a1-3)]GlcNAc
Outline: as §1

[9] = target: Fuc(a1-3)[Gal(b1-4)]GlcNAc(b1-3)GalNAc
Outline: as §1

[10] = target: Fuc(a1-3)[Gal(b1-4)]GlcNAc(b1-6)GalNAc
Outline: as §1

[11] = target: Fuc(a1-3)[Gal(b1-4)]GlcNAc(b1-6)[Gal(b1-3)GlcNAc(b1-3)]Gal(b1-4)Glc
Outline: as §1

[12] = target: Fuc(a1-3)[Gal(b1-4)]GlcNAc6S
Outline: as §1

[13] = target: Fuc(a1-3)[Gal3S(b1-4)]Glc
Outline: as §1

[14] = target: Fuc(a1-3)[Gal3S(b1-4)]GlcNAc
Outline: as §1

[15] = target: Fuc(a1-3)[Gal3S(b1-4)]GlcNAc6S
Outline: as §1

[16] = target: Fuc(a1-3)[GalNAc(b1-4)]GlcNAc
Outline: as §1

[17] = target: Fuc(a1-3)[GalNAc(b1-4)]GlcNAc6S
Outline: as §1

Fuc(a1-4)GlcNAc = target: Fuc(a1-4)GlcNAc
Outline: as §1

Fuc(b1-3)GlcNAc = target: Fuc(b1-3)GlcNAc
Outline: as §1

Gal(a1-2)Gal = target: Gal(a1-2)Gal
Outline: as §1

Gal(a1-3)Gal = target: Gal(a1-3)Gal
Outline: as §1

Gal(a1-3)Gal(b1-3)GlcNAc = target: Gal(a1-3)Gal(b1-3)GlcNAc
Outline: as §1

[18] = target: Gal(a1-3)Gal(b1-3)GlcNAc(b1-2)Man
Outline: as §1

[19] = target: Gal(a1-3)Gal(b1-3)GlcNAc(b1-2)Man(a1-3)[Gal(a1-3)Gal(b1-3)GlcNAc(b1-2)Man(a1-6)]Man(b1-4)GlcNAc(b1-4)GlcNAc
Outline: as §1

[20] = target: Gal(a1-3)Gal(b1-3)GlcNAc(b1-3)GalNAc
Outline: as §1

[21] = target: Gal(a1-3)Gal(b1-3)GlcNAc(b1-6)GalNAc
Outline: as §1

[22] = target: Gal(a1-3)Gal(b1-3)[Fuc(a1-4)]GlcNAc(b1-2)Man(a1-3)[Gal(a1-3)Gal(b1-3)[Fuc(a1-4)]GlcNAc(b1-2)Man(a1-6)]Man(b1-4)GlcNAc(b1-4)GlcNAc
Outline: as §1

Gal(a1-3)Gal(b1-4)Glc = target: Gal(a1-3)Gal(b1-4)Glc
Outline: as §1

Gal(a1-3)Gal(b1-4)GlcNAc = target: Gal(a1-3)Gal(b1-4)GlcNAc
Outline: as §1

[23] = target: Gal(a1-3)Gal(b1-4)GlcNAc(b1-2)Man
Outline: as §1

[24] = target: Gal(a1-3)Gal(b1-4)GlcNAc(b1-2)Man(a1-3)[Gal(a1-3)Gal(b1-4)GlcNAc(b1-2)Man(a1-6)]Man(b1-4)GlcNAc(b1-4)GlcNAc
Outline: as §1

[25] = target: Gal(a1-3)Gal(b1-4)GlcNAc(b1-3)GalNAc
Outline: as §1

[26] = target: Gal(a1-3)Gal(b1-4)GlcNAc(b1-6)GalNAc
Outline: as §1

[27] = target: Gal(a1-3)Gal(b1-4)[Fuc(a1-3)]GlcNAc
Outline: as §1

[28] = target: Gal(a1-3)Gal(b1-4)[Fuc(a1-3)]GlcNAc(b1-2)Man(a1-3)[Gal(a1-3)Gal(b1-4)[Fuc(a1-3)]GlcNAc(b1-2)Man(a1-6)]Man(b1-4)GlcNAc(b1-4)GlcNAc
Outline: as §1

Gal(a1-3)GalNAc = target: Gal(a1-3)GalNAc
Outline: as §1

[29] = target: Gal(a1-3)[Gal(a1-4)]Gal(b1-4)GlcNAc
Outline: as §1

[30] = target: Gal(a1-4)Gal(b1-3)GlcNAc(b1-2)Man(a1-3)[Gal(a1-4)Gal(b1-3)GlcNAc(b1-2)Man(a1-6)]Man(b1-4)GlcNAc(b1-4)GlcNAc
Outline: as §1

Gal(a1-4)Gal(b1-4)Glc = target: Gal(a1-4)Gal(b1-4)Glc
Outline: as §1

Gal(a1-4)Gal(b1-4)GlcNAc = target: Gal(a1-4)Gal(b1-4)GlcNAc
Outline: as §1

[31] = target: Gal(a1-4)Gal(b1-4)GlcNAc(b1-2)Man(a1-3)[Gal(a1-4)Gal(b1-4)GlcNAc(b1-2)Man(a1-6)]Man(b1-4)GlcNAc(b1-4)GlcNAc
Outline: as §1

[32] = target: Gal(a1-4)Gal(b1-4)GlcNAc(b1-3)Gal(b1-4)Glc
Outline: as §1

Gal(a1-4)GlcNAc = target: Gal(a1-4)GlcNAc
Outline: as §1

Gal(a1-6)Glc = target: Gal(a1-6)Glc
Outline: as §1

B1: PX9937F-bfa-516-16-516 (Bacteroides fragilis) (protein)
chain: LDIDPTSSIADSNYWKTEAQFSTFNVGLHALLRECSFNFFLLGEPRADIYGDVPFGGEATQGMERLPFNTINKENTGISNFAGMYKVINQINLMIAKTKETTVLSEAGKNYYLGEAYGMRAYLYFHLLRSWGDVILYLDYTNGASLDLSNLSKAASPAEEVMKQIKEDITASEKGFGSDYSFKYGRYYWSMAATQMLKGEVYLWSGRQMGGGTADYTTAKTALQSIVSNANVSLQDDFSKVFAYNNKDNSEIIFSIRNAKDEYNMWDDRFRQNLVPQQAYMTSTYCNKEGVSFKDLPEGQLNGLIRLQIRYDLYNKAFRDGDTRKDASMTAVYQKQQDGTVKYIAPFCNKYQGVLLDGASQRSFLNDYPIYRYADCLLLLAEAKALLGEDPTAEINQVRERAYGKEFFEANKATLAYPNDKGDFYTDNKYMSGDEDPLEAILKERMREFMFEGKRWYDLRLLGADYVTKRTSAVATRLLWPINESVLTDNPALKQTPGYQN
- glycan array binding signal (z-score) (Fuc(a1-3)GlcNAc): -0.041
- glycan array binding signal (z-score) [1]: 0.074
- glycan array binding signal (z-score) [2]: -0.071
- glycan array binding signal (z-score) [3]: -0.261
- glycan array binding signal (z-score) [4]: -0.045
- glycan array binding signal (z-score) [5]: 0.591
- glycan array binding signal (z-score) [6]: -0.161
- glycan array binding signal (z-score) [7]: -0.038
- glycan array binding signal (z-score) [8]: -0.262
- glycan array binding signal (z-score) [9]: -0.327
- glycan array binding signal (z-score) [10]: -0.091
- glycan array binding signal (z-score) [11]: -0.077
- glycan array binding signal (z-score) [12]: -0.414
- glycan array binding signal (z-score) [13]: -0.283
- glycan array binding signal (z-score) [14]: -0.036
- glycan array binding signal (z-score) [15]: -0.134
- glycan array binding signal (z-score) [16]: 0.75
- glycan array binding signal (z-score) [17]: 0.193
- glycan array binding signal (z-score) (Fuc(a1-4)GlcNAc): -0.192
- glycan array binding signal (z-score) (Fuc(b1-3)GlcNAc): -0.353
- glycan array binding signal (z-score) (Gal(a1-2)Gal): 0.437
- glycan array binding signal (z-score) (Gal(a1-3)Gal): -0.019
- glycan array binding signal (z-score) (Gal(a1-3)Gal(b1-3)GlcNAc): 1.46
- glycan array binding signal (z-score) [18]: -0.215
- glycan array binding signal (z-score) [19]: -0.137
- glycan array binding signal (z-score) [20]: -0.071
- glycan array binding signal (z-score) [21]: -0.3
- glycan array binding signal (z-score) [22]: -0.016
- glycan array binding signal (z-score) (Gal(a1-3)Gal(b1-4)Glc): -0.286
- glycan array binding signal (z-score) (Gal(a1-3)Gal(b1-4)GlcNAc): -0.429
- glycan array binding signal (z-score) [23]: -0.213
- glycan array binding signal (z-score) [24]: 0.13
- glycan array binding signal (z-score) [25]: 0.853
- glycan array binding signal (z-score) [26]: 0.066
- glycan array binding signal (z-score) [27]: -0.34
- glycan array binding signal (z-score) [28]: 0.064
- glycan array binding signal (z-score) (Gal(a1-3)GalNAc): -0.268
- glycan array binding signal (z-score) [29]: 0.006
- glycan array binding signal (z-score) [30]: -0.253
- glycan array binding signal (z-score) (Gal(a1-4)Gal(b1-4)Glc): -0.235
- glycan array binding signal (z-score) (Gal(a1-4)Gal(b1-4)GlcNAc): -0.077
- glycan array binding signal (z-score) [31]: 0.21
- glycan array binding signal (z-score) [32]: -0.248
- glycan array binding signal (z-score) (Gal(a1-4)GlcNAc): -0.107
- glycan array binding signal (z-score) (Gal(a1-6)Glc): -0.074
